The whole screen tested about 310,000 compounds, of which about 2,200 (0.71%) showed an effect of 50% or more. The effect is printed as a negative number. The list shows a part of the results.
These compounds were tested against human ether-à-go-go-related gene (hERG) potassium channel (human, UniProt Q12809) (assay: primary screen, population patch clamp on CHO cells stably expressing hERG).
Sequence of human ether-à-go-go-related gene (hERG) potassium channel (Q12809 whole entry, looked up): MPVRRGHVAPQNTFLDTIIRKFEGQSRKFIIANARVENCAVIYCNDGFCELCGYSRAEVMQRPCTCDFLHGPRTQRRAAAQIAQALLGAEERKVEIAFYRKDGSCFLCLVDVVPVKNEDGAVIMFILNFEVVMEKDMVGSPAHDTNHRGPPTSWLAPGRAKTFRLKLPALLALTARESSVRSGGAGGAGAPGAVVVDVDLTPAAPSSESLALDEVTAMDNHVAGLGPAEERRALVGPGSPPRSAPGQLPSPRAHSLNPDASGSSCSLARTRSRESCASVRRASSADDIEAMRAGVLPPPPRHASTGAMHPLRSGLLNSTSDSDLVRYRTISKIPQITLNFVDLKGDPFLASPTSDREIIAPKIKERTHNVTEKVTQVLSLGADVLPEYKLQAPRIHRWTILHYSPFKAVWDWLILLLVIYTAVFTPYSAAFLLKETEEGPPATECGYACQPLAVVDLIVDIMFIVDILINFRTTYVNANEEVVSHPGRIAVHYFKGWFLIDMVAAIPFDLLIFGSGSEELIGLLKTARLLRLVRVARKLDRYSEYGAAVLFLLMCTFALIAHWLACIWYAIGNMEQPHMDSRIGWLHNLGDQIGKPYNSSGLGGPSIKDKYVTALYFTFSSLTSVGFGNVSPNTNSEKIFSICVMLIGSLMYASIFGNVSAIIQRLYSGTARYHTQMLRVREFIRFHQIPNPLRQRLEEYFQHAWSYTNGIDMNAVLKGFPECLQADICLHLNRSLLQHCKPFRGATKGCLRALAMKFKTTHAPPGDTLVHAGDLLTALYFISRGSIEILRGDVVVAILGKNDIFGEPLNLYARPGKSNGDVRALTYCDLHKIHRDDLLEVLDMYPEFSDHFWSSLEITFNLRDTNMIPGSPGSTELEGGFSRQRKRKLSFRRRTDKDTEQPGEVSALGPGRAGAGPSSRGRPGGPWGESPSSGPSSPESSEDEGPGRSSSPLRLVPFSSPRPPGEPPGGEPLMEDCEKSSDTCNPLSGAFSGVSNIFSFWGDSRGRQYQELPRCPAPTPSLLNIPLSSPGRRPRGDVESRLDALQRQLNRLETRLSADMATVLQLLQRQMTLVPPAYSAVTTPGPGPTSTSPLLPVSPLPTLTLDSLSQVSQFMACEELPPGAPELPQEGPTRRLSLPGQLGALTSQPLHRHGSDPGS

SMILES	hERG current change (%, negative = inhibition) at 1uM [%]
C=CCn1c(O)c(C(C)=NCc2ccco2)c(=O)[nH]c1=O	-9.55
O=[N+]([O-])c1cc(C(F)(F)F)ccc1N1CCN(S(=O)(=O)c2ccc3c(c2)CCCC3)CC1	1.7
COc1ccc(N2CCN(C(=O)CSc3ccccc3)CC2)cc1	12.7
Cc1ccc([N+](=O)[O-])cc1S(=O)(=O)Nc1ccc(-c2ccc(N3CCOCC3)nn2)cc1	1.4
COCCn1c(SCc2cccc([N+](=O)[O-])c2)nc2ccccc2c1=O	-4.67
C=CCn1c(Cc2ccc(OCC)cc2)nnc1SCC(N)=O	14
CCC(CC)NC(=O)Nc1ccc(F)cc1F	5.72
CCN(c1nc(N)c(C(=O)N=C(N)N)nc1Cl)C(C)C	-5.52
Clc1cccc(Cl)c1-c1noc(-c2ccno2)n1	13.1
C/C(CC(=O)Nc1ccccn1)=N\NC(=O)Cc1cccc2ccccc12	11.7
O=C(NNC(=O)c1ccccc1C(=O)O)c1ccc(-c2ccccc2)cc1	-1.61
O=C(NC(=S)Nc1ccc(Oc2ccc(Cl)cc2)cc1)c1ccccc1	5.53
Cc1ccc2ccc(C(Nc3ccccn3)c3ccccc3)c(O)c2n1 (stereo not shown)	4.83
CC(=O)N1CCN(c2ccc(NC(=O)c3ccc(Cl)c([N+](=O)[O-])c3)cc2)CC1	5.32
O=C(CCNS(=O)(=O)c1ccc(Cl)cc1)N1CCC2(O)CCCCC2C1 (stereo not shown)	11.7
CC(CN1CCN(Cc2ccccc2)CC1)c1ccccc1.O=C(O)C(=O)O (stereo not shown)	11.3
COc1cccc(-n2c(Cc3cc(=O)[nH]c(=O)[nH]3)nnc2SCC(=O)N2CCC(C)CC2)c1	15.9
Cc1cc(C)cc(NC(=O)C2CCN(S(=O)(=O)c3ccc4c(c3)NC(=O)C(C)S4)CC2)c1 (stereo not shown)	10.2
O=C(Nc1ccc(F)cc1)N1CCCC(c2nc3c(nnn3Cc3ccccc3Cl)c(=O)[nH]2)C1 (stereo not shown)	13.4
Cc1ccc(N2C(=O)c3cccc4cccc(c34)C2=O)cc1	16.5
Cc1ccccc1Cn1c(C)nc2ccccc21	10.4
CCOC(=O)C1CCN(c2c(N3CCCCCC3)c(=O)c2=O)CC1	8.04

SMILES	hERG current change (%, negative = inhibition) at 1uM [%]
CCCc1c(C)nc(N2CCN(c3cccc(OC)c3)CC2)[nH]c1=O	18.7
Cc1nnc(C)c2c(C)n(C(C)c3ccccc3)c(C)c12 (stereo not shown)	-1.28
CCOC(=O)COc1ccc2c(=O)c(-c3ccc(OC)c(OC)c3)c(C(=O)OCC)oc2c1	10.6
Cc1ccc(C(=O)N/C(=C\c2cccnc2)c2nc3ccccc3[nH]2)cc1	2.21
O=C1CCCN1c1cc(Cl)cc(Cl)c1	-1.03
O=C(COC(=O)/C=C/c1ccc(S(=O)(=O)N2CCOCC2)cc1)NC1CCCCCCC1	15.2
CCCCN(CC)CCNC(=O)Cn1cc2c(n1)-c1c(oc(C(=O)N3CCCC3)c1C)CC2	3.58
Cc1ccc(NC(=O)CSc2nnc(-c3ccncc3)n2C)cc1S(=O)(=O)N1CCOCC1	-1.81
Cc1cc(C)n(/N=C/c2cc([N+](=O)[O-])ccc2O)c(=O)c1	14.9
CC(=O)Nc1cccc(NC(=S)Nc2ccc(F)c(Cl)c2)c1	8.49
COc1ccc(NC(=S)Nc2ccc(S(N)(=O)=O)cc2)c(C)c1	14.6
Cc1nc([N+](=O)[O-])nn1C12CC3CC(CC(Br)(C3)C1)C2	5.03
COc1ccc(NC2=NCC(=O)N2c2ccccc2F)cc1.Cl	11.8
CC(=O)Nc1ccc(SCC(=O)c2ccc(Br)s2)cc1	16.4
Cc1ncoc1C(=O)N1CCc2c([nH]c3ccccc23)C1C(C)(C)C (stereo not shown)	0.456
CC(OC(=O)/C=C/c1cccc(F)c1)C(=O)NC1CCCCC1C (stereo not shown)	9.21
CC(NC(=O)c1ccco1)C(=O)N1CCN(S(=O)(=O)c2ccccc2C#N)CC1 (stereo not shown)	3.03
CCC1CCCCN1CCCNC(=O)C1CCC(=O)N1Cc1ccc(C)cc1 (stereo not shown)	13.4
CN(CCNC(=O)c1cn(C)c2ccc(S(=O)(=O)N3CCCC3)cc2c1=O)CCc1ccccc1	-1.68
O=c1[nH]c2cc3c(cc2cc1C(c1nnnn1C1CCCCC1)N1CCSCC1)OCCO3 (stereo not shown)	3.34
Cc1nc2cc(C(F)(F)F)ccc2n1C1CCN(Cc2nnnn2CCc2ccccc2)CC1	-5.2
CC1CC(=O)N(CC(=O)Nc2ccc(F)cc2F)c2ccccc2S1(=O)=O (stereo not shown)	0.457

SMILES	hERG current change (%, negative = inhibition) at 1uM [%]
COc1ccc(/C=C/C(=O)NCC(=O)N/N=C/c2cccs2)cc1	4.91
N#Cc1ccc(C(=O)Nc2nnc(-c3cccs3)o2)cc1	12.2
CCOC(=O)c1c(C)[nH]c(C2=NNC(=NC(C)COC)SC2)c1C (stereo not shown)	11.7
Cc1ccc(C(C)C)c(OCC(=O)N2CCN(Cc3nc4cc([N+](=O)[O-])ccc4n3C)CC2)c1	-17.9
O=C(Nc1nnc(SCc2ccc(F)cc2)s1)c1cccnc1Cl	5.65
COc1ccc(N=CC2=C(O)c3ccccc3C2=O)cc1	9.01
CNC(=S)N(CCO)Cc1cc2cc3c(cc2[nH]c1=O)OCCO3	10.8
Cc1cc2c3ccccc3ncn2n1	20.1
COc1ccc(-c2ccnc3c(C(=O)O)cnn23)cc1	16
CCCC(=O)NC1C2CC3CC(C2)CC1C3 (stereo not shown)	11.5
O=C(Cn1cnc2c(nnn2-c2ccccc2)c1=O)NCCc1ccccc1	1.61
CCOC(=O)c1cnc2nc[nH]n2c1=O	11
O=C(NN1C(=O)c2ccccc2C1=O)c1ccccc1[N+](=O)[O-]	6.5
O=C(Nc1ccccn1)c1ccc([N+](=O)[O-])cc1Cl	6.99
COc1cccc2[nH]c3c(=O)n(CCCN4CCOCC4)cnc3c12	0.499
Cl.O=C(c1ccc(Cn2ccc([N+](=O)[O-])n2)cc1)N1CCN(Cc2ccccc2)CC1	-1.17
Cc1csc2c(N3CCN(C(=S)Nc4ccc(C(F)(F)F)cc4)CC3)ncnc12	17
Cc1ccc(S(=O)(=O)N2CCN3CCCC3C2)cc1 (stereo not shown)	-5.48
Cc1ccccc1NC(=O)NCCCCc1ccccc1	-1.31
CC(C)CC(=O)NCCCCc1ccccc1	12.1
O=C(CCNS(=O)(=O)c1ccc(Br)cc1)NCc1ccc(Cl)cc1	16.4
CCN(CC)C(=O)COc1ccc2c3c(c(=O)oc2c1)CCCC3	9.9

SMILES	hERG current change (%, negative = inhibition) at 1uM [%]
CCc1cc(CNC(=O)CCc2nnc(Cc3cccc(C)c3)o2)on1	12.7
O=C(O)CCCN1C(=O)C(=O)/C(=C(/O)c2ccc(Cl)cc2)C1c1ccccc1 (stereo not shown)	12.3
Cc1ccc(OCC(=O)NNC(=O)[C@@H]2CCCC[C@@H]2C(=O)O)c(Br)c1	16.6
CCCCC(c1nnnn1CCOC)N1CCN(Cc2ccccc2)CC1.Cl (stereo not shown)	-11.8
COc1ccc(C)cc1Nc1nc(N)c2ccccc2n1.Cl	7.86
CCN(C(=O)COc1cccc2cccnc12)C1CCS(=O)(=O)C1 (stereo not shown)	13.3
O=C(CCc1nc2ccccc2[nH]1)Nc1ccccc1F	12.7
O=C(c1ccc(-c2cc3ccccc3oc2=O)cc1)N1CCN(c2ccc(Cl)cc2[N+](=O)[O-])CC1	-1.77
CCC(CC)C(=O)NC1CCSC1=O (stereo not shown)	12.4
CCOc1ccc(-c2nc(CSc3nnc(N)s3)cs2)cc1	9.35
CC(=O)c1sc(NCc2ccccc2)nc1C	19.1
COC(=O)c1cc(C(=O)NCc2ccc3c(c2)OCO3)cc([N+](=O)[O-])c1	5.16
O=C(N/N=C\c1ccc(Cl)s1)C1COc2ccccc2O1 (stereo not shown)	12.7
COc1cccc(CN(CC(=O)NCc2ccccc2)C(=O)c2csnn2)c1	11.9
Cc1c(C(=O)OCC(=O)Nc2ccc3c(c2)OCO3)cccc1[N+](=O)[O-]	-1.77
OC(COc1ccc(OCC(O)CN2CCCCC2)cc1)CN1CCCCC1 (stereo not shown)	18.1
COc1ccc(-n2c(NNC(C)=O)nc3sc4c(c3c2=O)CCCC4)cc1	14.5
O=C(CSc1nnc(CCCN2C(=O)c3cccc4cccc(c34)C2=O)n1-c1ccccc1)NCCCO	11.6
COc1ccc(CNC(=O)c2nnn(-c3cccc(C(F)(F)F)c3)c2N)cc1	9.2
NS(=O)(=O)c1ccc(NC(=S)N2CCCC2)cc1	11.7
O=C(Cc1ccccc1)N1N=C(c2ccncc2)CC1(O)C(F)(F)F (stereo not shown)	11.1
O=C(CCC1CCCN(Cc2ccc3c(c2)OCCO3)C1)NCc1ccc(F)c(F)c1 (stereo not shown)	-39.3
